Results reported in the supplement of paper PMC12217912.
The other results are listed elsewhere or left out. The full chains were built here from the parent and the listed change. Inactive controls read about 0.05.

B1: TEV protease; numbered along this chain (parent)
chain: MGESLFKGPRDYNPISSSICHLTNESDGHTTSLYGIGFGPFIITNKHLFRRNNGTLVVQSLHGVFKVKDTTTLQQHLVDGRDMIIIRMPKDFPPFPQKLKFREPQREERICLVTTNFQTKSMSSMVSDTSCTFPSGDGIFWKHWIQTKDGQCGSPLVSTRDGFIVGIHSASNFTNTNNYFTSVPKNFMELLTNQEAQQWVSGWRLNADSVLWGGHKVFMVKPEEPFQPVKEATQL

Variants of: B1
Assay: raw area under fraction-flipped curve 0-4 h after induction (AUC4h, not background-subtracted), DNA-recorder readout of cleavage of the substrate (dimensionless); higher = more cleavage of the substrate by the protease variant
Details: temperature: 34 °C; time window: 0-4 h after rhamnose induction
Protocol: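 In vivo DNA recorder in E. coli TOP10(DE3) ΔrhaA at 34 °C. Each TEVp single-site mutant (parent TEVp 0) is paired with a single-site variant of the 7-mer TEVs (canonical ENLYFQ|S). The substrate sits between flexible linkers in a Bxb1-sfGFP-TEVs-SsrA fusion, so cleavage stabilises Bxb1 and speeds flipping of a recombination array, read by NGS. The value is the raw area under the fraction-flipped curve over 0-4 h after rhamnose induction (AUC4h), with ≥20 reads per time point. It is not background-subtracted; inactive controls average about 0.047.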
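Further: Bxb1 expression induced with 0.2% (w/v) L-rhamnose at OD600 near 0.5, cultures sampled hourly, flipped fraction per protease–substrate barcode pair counted by paired-end Illumina sequencing.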

| Variant | area with substrate ENLYDQS | area with substrate ENLYEQS | area with substrate ENLYGQS | area with substrate ENLYHQS | area with substrate ENLYMQS | area with substrate ENLYQQS | area with substrate ENLYSQS | area with substrate ENLYVQS | area with substrate ENLYWQS | area with substrate ENLYIQS | area with substrate ENLYKQS | area with substrate ENLYNQS | area with substrate ENLYPQS | area with substrate ENLYRQS | area with substrate ENLYTQS | area with substrate ENLYLQS | area with substrate ENLYYQS |
| --- | --- | --- | --- | --- | --- | --- | --- | --- | --- | --- | --- | --- | --- | --- | --- | --- | --- |
| T132R | 0.0569 | 0.063 | 0.051 | 0.0537 | 0.0427 | 0.0567 | 0.0514 | 0.0473 | 0.0542 | – | – | – | – | – | – | – | – |
| I86E | 0.0339 | – | 0.0361 | 0.0355 | – | 0.0312 | – | 0.0447 | 0.0186 | 0.03 | 0.0263 | 0.0334 | 0.0081 | 0.0088 | 0.0301 | – | – |
| T44Y | 0.0474 | 0.0531 | 0.0614 | 0.0482 | 0.0434 | – | 0.0395 | 0.0635 | – | 0.0521 | 0.0336 | 0.0448 | 0.0405 | 0.0457 | – | 0.0434 | – |
| W212F | 0.0464 | 0.0606 | 0.0624 | 0.0735 | 0.0859 | 0.0685 | 0.0875 | 0.0982 | 0.0886 | 0.105 | 0.0824 | 0.0618 | – | 0.0624 | – | – | – |
| N116K | 0.0747 | – | – | – | 0.0867 | – | – | – | – | 0.154 | 0.049 | 0.0677 | – | – | – | – | – |
| S121L | 0.0604 | 0.0751 | 0.0676 | 0.0649 | – | 0.0659 | 0.0964 | 0.0915 | 0.0669 | 0.0831 | 0.0612 | 0.0661 | 0.075 | – | – | 0.078 | 0.0697 |
| Q234H | – | 0.0567 | 0.0666 | 0.0705 | – | – | – | – | – | 0.135 | – | 0.0866 | 0.0652 | 0.0318 | – | 0.14 | – |
| F187C | – | 0.0601 | – | 0.0568 | 0.0717 | 0.0612 | – | – | – | – | – | 0.0571 | 0.0603 | – | – | – | – |
| G166N | – | 0.058 | 0.0541 | 0.0673 | 0.0517 | – | 0.0545 | 0.0631 | 0.0471 | 0.0397 | 0.0508 | – | 0.0453 | – | – | – | – |
| K230T | – | 0.0678 | 0.0686 | 0.0667 | 0.0742 | 0.058 | 0.0633 | – | 0.0796 | 0.121 | 0.0673 | 0.0604 | 0.112 | 0.0606 | 0.0715 | 0.065 | 0.0633 |
| V113T | – | 0.0603 | 0.0627 | 0.0624 | 0.0592 | – | – | 0.0862 | – | 0.0676 | 0.0736 | 0.0853 | – | 0.0875 | 0.0636 | – | – |
| T30K | – | 0.0692 | 0.0812 | 0.0732 | 0.0639 | 0.0606 | – | 0.0813 | 0.0733 | 0.119 | – | 0.0726 | 0.0874 | 0.0619 | – | – | – |
| F95W | – | 0.0636 | 0.055 | 0.0682 | 0.0838 | 0.0691 | 0.0575 | – | 0.0654 | 0.0982 | – | 0.0684 | 0.0684 | 0.0582 | – | 0.0662 | – |
| I110M | – | 0.0657 | 0.0556 | 0.0534 | 0.0655 | 0.0499 | 0.0732 | – | 0.0648 | 0.0742 | 0.053 | 0.0507 | – | – | 0.0637 | – | 0.0582 |
| R109H | – | 0.0812 | 0.0695 | 0.0728 | 0.0617 | – | 0.0635 | 0.116 | 0.084 | 0.107 | 0.0557 | – | 0.0777 | – | 0.055 | 0.112 | – |
